Reference: the supplement of paper PMC4604168 (melanoma cell lines)
The list shows a part of the results. Single values are uncertain, as repeats are few or missing.

These compounds were tested on UACC62 (assay: cell count relative to DMSO control; melanoma cells; higher = more viable cells). Settings: library dose: standard library concentration; 72 h; first compound 2 µM.
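Further: cells treated in 1,536-well plates, then fixed and DAPI-stained, with nuclei counted from automated high-throughput microscope images.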

Row | Compound | cell count [%]
1 | C[C@@H](N)c1ccc(C(=O)Nc2ccnc3[nH]ccc23)cc1 + CCCCCCCCc1ccc(CCC(N)(CO)CO)cc1 [fingolimod] (partner dose 10 µM) | 16.3
2 | Cn1sc(=O)n(Cc2ccccc2)c1=O + C[C@]1(O)C[C@@H](c2nc(-c3ccc4ccc(-c5ccccc5)nc4c3)c3c(N)nccn32)C1 [OSI906] (partner dose 2 µM) | 91.5
3 | Cn1sc(=O)n(Cc2ccccc2)c1=O + NC(=O)c1ccc(N(C(N)=O)c2c(F)cccc2F)nc1-c1ccc(F)cc1F [VX702] (partner dose 2 µM) | 66.2
4 | C[C@@H](N)c1ccc(C(=O)Nc2ccnc3[nH]ccc23)cc1 + Cn1cnc2c(F)c(Nc3ccc(Br)cc3Cl)c(C(=O)NOCCO)cc21 [selumetinib] (partner dose 0.075 µM) | 62
5 | CCCCCCCCCCCCCCCCCCOP(=O)([O-])OC1CC[N+](C)(C)CC1 [Perifosine] + CC(C)C[C@H](NC(=O)[C@H](Cc1ccccc1)NC(=O)c1cnccn1)B(O)O [Bortezomib] (partner dose 0.005 µM) | 43.6
6 | C[C@@H](N)c1ccc(C(=O)Nc2ccnc3[nH]ccc23)cc1 + CNC(=O)c1cc(Oc2ccc(NC(=O)Nc3ccc(Cl)c(C(F)(F)F)c3)cc2)ccn1 [sorafenib] (partner dose 2 µM) | 123
7 | CCCCCCCCCCCCCCCCCCOP(=O)([O-])OC1CC[N+](C)(C)CC1 [Perifosine] + C[C@]1(O)C[C@@H](c2nc(-c3ccc4ccc(-c5ccccc5)nc4c3)c3c(N)nccn32)C1 [OSI906] (partner dose 2 µM) | 60.4
